Our source for the self-cleavage values is the RNAGym collection of RNA variant scans (doi:10.1093/nar/gkz1192).

First the molecules themselves.
B1: CPEB3 Ribozyme (parent)
chain: UAACAGGGGGCCACAGCAGAAGCGUUCACGUCGCAGCCCCUGUCAGAUUCUGGUGAAUCUGCGAAUUCUGCUGUAUAUCUC

The source gives no read counts; variants with many changes may rest on few reads.

Variants of B1 are the subject of the series. In words: self-cleavage, relative activity (ratio to wild type); higher = more cleavage; in vitro, sequencing. The gist of the method: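 Relative activity was defined as the cleaved/total read fraction for a variant divided by the same fraction for the unmutated ribozyme. CPEB3 self-cleaving ribozyme libraries were made by rounds of error-prone PCR, barcoded, and transcribed in vitro with T7 RNA polymerase for 5 hours at 37°C, and cleavage ran through transcription plus a 15 min DNase I step before EDTA. Illumina sequencing of template-switched reverse transcripts gave the reads, and DNA sequencing mapped the barcodes. Averages come from three batches, using variants with at least 5 reads.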
Consider C17U U41A U48C U80A, for which the self-cleavage came out at 0.06.

C17G U26C U31G U58C A75G: the self-cleavage is 0.03.

As for A18C G33C C40A A47G A56U, the self-cleavage is 0.21.

As to G16A C23A U25C A35G A47U, the self-cleavage amounted to 0.03.

On to G16C A28C U67C U74C, for which the self-cleavage came to 0.08.

As for A15U U25C G53A U54G A75C, the self-cleavage was 0.06.

Take A18C A75U U78C: the self-cleavage is 0.28.

With A15U U25C U54G, the self-cleavage was 0.22.

Turning to A15U U25C U54A, the self-cleavage was 0.51.

As for C17U A21G A28G U31C U78C U80C, the self-cleavage came out at 0.1.

Regarding G16U U41A U51C U72C, the self-cleavage worked out at 0.34.

For the variant A15U U25A U26A U43C U51A U60C U78A, the self-cleavage worked out at 0.04.

In the case of C17G A28C G33U U41A U72G U80A, the self-cleavage was 0.05.

Take A15U U31C A35G U60A G70A C71A: the self-cleavage came out at 0.4.

As to C17A A35U U69G, the self-cleavage came to 0.11.

Regarding C17U A20C A64G U69C, the self-cleavage was 0.14.

On to G16A U54C U58G U76C U80C, for which the self-cleavage stood at 0.12.

A15U A45C U58C: the self-cleavage is 0.07.

As for C17G U72C U80C, the self-cleavage was determined as 0.78.

As to C17G A21U A35G, the self-cleavage worked out at 0.61.

In the case of A15U U60A U69C, the self-cleavage is 0.11.

With A18C U25C U51C, the self-cleavage was determined as 0.19.

Turning to C17U A18U G33A A47C A65U U67C U80C, the self-cleavage came to 0.05.

As for A15U U25A U26C, the self-cleavage is 0.4.

With A15U A45G U49C U51A A57G, the self-cleavage is 0.09.

Take A18G A20C U41A: the self-cleavage stood at 0.35.

Consider A15U U41A U66A C68U, for which the self-cleavage is 0.24.

Take G16A A21G U60A: the self-cleavage is 0.15.

With A15U G63U U74C, the self-cleavage is 1.24.

As for A15U U26A A65U, the self-cleavage is 0.22.

On to C17U A21G U41C A56G A75U, for which the self-cleavage worked out at 0.13.

Consider A18G A20U A57G U58A, for which the self-cleavage is 0.09.

With C17U A21G U31G A47C U49C A64G U76C, the self-cleavage was 0.11.

In the case of C17G U26C U31A U58A, the self-cleavage stood at 0.19.

Consider A15U U48C U51A, for which the self-cleavage came out at 0.49.

Take A15U G24A U43A A56G G63U G70A: the self-cleavage was 0.06.

Turning to A18C U25G U31A U49A A64U U66C, the self-cleavage was 0.1.

As for G16A A56G U67C, the self-cleavage was 0.09.

In the case of A18G A20G U51C, the self-cleavage amounted to 0.25.

For G16A A28G C32U U43C, the self-cleavage stood at 0.21.

Consider A15U U58C A64G, for which the self-cleavage worked out at 0.19.

Turning to G16U U41A U58A, the self-cleavage came to 0.19.

As to A15U G16A U41G U54C A64G C81U, the self-cleavage was 0.09.

Turning to A15U U41C U60C, the self-cleavage is 0.37.

A18C U25C U51A G55A A57U: the self-cleavage was found to be 0.07.

Turning to G16A U48C U49C C50G U74C, the self-cleavage was 0.

For the variant A15U C38U U72C, the self-cleavage turned out to be 0.69.

Take A18G A20G G24A U41A U51C U60C A65G: the self-cleavage amounted to 0.33.

On to A18C U25C G53A U54C, for which the self-cleavage is 0.27.

G16U U58C A77U: the self-cleavage was 0.22.

As to A18C C39A U43C, the self-cleavage turned out to be 0.35.

On to C17G U31G U41A, for which the self-cleavage came out at 0.26.

As for A15U U25C A45U A47G A57C, the self-cleavage came to 0.14.

Regarding A15U U74C U80A, the self-cleavage turned out to be 1.26.

Regarding G16A U54C A56G, the self-cleavage came out at 0.37.

A15U A35U U67C: the self-cleavage turned out to be 0.16.

As to G16C U69A U76A, the self-cleavage amounted to 0.06.

A18C U26A A35G A45U U76C: the self-cleavage turned out to be 0.35.

Consider C17U U41C A65U, for which the self-cleavage was determined as 0.16.

For the variant G16A A18G A28G, the self-cleavage came out at 0.08.

In the case of A15U U31C A56G A75G U78C, the self-cleavage was 0.21.

Consider G16A U31C U43A U80C, for which the self-cleavage worked out at 0.64.

Take C17U C62U U67C: the self-cleavage came out at 0.13.

C17U U49C U76C U78C: the self-cleavage was found to be 0.19.

Consider G16A A20C A64G, for which the self-cleavage was 0.07.

On to G16U U25C U66C U72A, for which the self-cleavage stood at 0.06.

Turning to A18C U31A G33A U41C U72A, the self-cleavage amounted to 0.07.

For G16A A20G U49A U78C, the self-cleavage came out at 0.12.

As to A15U U26C U31A U43C A65G, the self-cleavage is 0.07.

A15U A57G A77G: the self-cleavage stood at 0.49.

Consider A18C U60C U67C U80C, for which the self-cleavage came to 0.21.

As to A15U A45C U72A, the self-cleavage amounted to 0.2.

In the case of G16A A18G A56U U80C, the self-cleavage was found to be 0.21.

Regarding A15U G42U U80C, the self-cleavage turned out to be 0.07.

As for A18G A20G U25A U26C C34U A45G U51C, the self-cleavage was 0.15.

In the case of A15U U31G U54C, the self-cleavage was 0.34.

G16A U43C U54A: the self-cleavage amounted to 0.13.

For the variant A15U U51G A65U A75G, the self-cleavage worked out at 0.23.

Turning to A15U G30A U54C A64G, the self-cleavage worked out at 0.06.

As to A18G A20G A45G A56G, the self-cleavage was 0.23.

Regarding C17G A18G A21G A35U, the self-cleavage came to 0.28.

Take A18G A20G C34G U80C: the self-cleavage came to 0.39.

For C17U G24C A28G U43C U80A, the self-cleavage was 0.08.

As to A15U U54C A56G U58C A64U U72C U80C, the self-cleavage is 0.11.
